Measurements as given in the supplement of paper PMC12645437, “Orthogonal IMiD-Degron Pairs Induce Selective Protein Degradation in Cells” (ACS Chemical Biology, 2025).
Some of the results follow.

B1: Q9UKT9 (peptide)
chain: FLCEICGARFTQKGNLLRHIKL
B2: Q9UKT9 (peptide)
chain: FTCEICGAYFTQKGNLLRHIKL
B3: Q9UKT9 (peptide)
chain: FNCDVCGALFTQKGNLLRHIKL
B4: Q9UKT9 (peptide)
chain: LECPICGFKCTQKGNLLRHIKL
B5: Q9UKT9 (peptide)
chain: FACPICGRFFTQKGNLLRHIKL
B6: Q9UKT9 (peptide)
chain: FCCPQCGAQFTQKGNLLRHIKL
B7: Q9UKT9 (peptide)
chain: FMCDQCGAMFTQKGNLLRHIKL
B8: Q9UKT9 (peptide)
chain: LECEICGFSCTQKGNLLRHIKL
B9: Q9UKT9 (peptide)
chain: FRCNICGAQFTQKGNLLRHIKL
B10: Q9UKT9 (peptide)
chain: FGCSVCGHMFTQKGNLLRHIKL
B11: Q9UKT9 (peptide)
chain: FFCNQCGHAFTQKGNLLRHIKL
B12: Q9UKT9 (peptide)
chain: FGCEVCGARFTQKGNLLRHIKL
B13: Q9UKT9 (peptide)
chain: FQCNQCGALFTQKGNLLRHIKL
B14: Q9UKT9 (peptide)
chain: FQCEICGHLFTQKGNLLRHIKL
B15: Q9UKT9 (peptide)
chain: FYCPQCGANFTQKGNLLRHIKL
B16: Q9UKT9 (peptide)
chain: LACNQCGFVCTQKGNLLRHIKL
B17: Q9UKT9 (peptide)
chain: FYCPICGRKFTQKGNLLRHIKL
B18: Q9UKT9 (peptide)
chain: FECDQCGAFFTQKGNLLRHIKL
B19: Q9UKT9 (peptide)
chain: FSCEQCGAVFTQKGNLLRHIKL
B20: Q9UKT9 (peptide)
chain: FFCPICGAFFTQKGNLLRHIKL
B21: Q9UKT9 (peptide)
chain: LCCNQCGFDCTQKGNLLRHIKL
B22: Q9UKT9 (peptide)
chain: FKCDQCGAVFTQKGNLLRHIKL
B23: Q9UKT9 (peptide)
chain: FFCEVCGAGFTQKGNLLRHIKL
B24: Q9UKT9 (peptide)
chain: FHCNQCGHAFTQKGNLLRHIKL
B25: Q9UKT9 (peptide)
chain: FACPQCGAMFTQKGNLLRHIKL
B26: Q9UKT9 (peptide)
chain: FICNQCGAIFTQKGNLLRHIKL
B27: Q9UKT9 (peptide)
chain: FHCPICGRYFTQKGNLLRHIKL
B28: Q9UKT9 (peptide)
chain: FTCNICGAHFTQKGNLLRHIKL
B29: Q9UKT9 (peptide)
chain: FLCNQCGHWFTQKGNLLRHIKL
B30: Q9UKT9 (peptide)
chain: FYCPQCGARFTQKGNLLRHIKL
B31: Q9UKT9 (peptide)
chain: FVCNVCGAHFTQKGNLLRHIKL
B32: Q9UKT9 (peptide)
chain: LKCPICGFQCTQKGNLLRHIKL

Target: no compound (DMSO)
Test: log2 fold change of degron read counts, EGFP-low vs EGFP+ sorted cells; higher = lower degron-EGFP level without compound (poor expression or instability)
Conditions: compound: DMSO control; 18 h
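Further: jurkat cells carrying a lentiviral library of mutant zinc finger degrons fused to EGFP plus mCherry, mCherry+ cells FACS sorted, degron abundance counted by next-generation sequencing.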

Row | Sequence | log2 fold change of degron read counts
1 | B1 | -0.869
2 | B2 | -0.909
3 | B3 | -1.27
4 | B4 | 0.629
5 | B5 | -0.363
6 | B6 | -1.72
7 | B7 | -0.648
8 | B8 | -0.562
9 | B9 | -0.571
10 | B10 | 0.358
11 | B11 | 0.543
12 | B12 | -0.759
13 | B13 | -0.179
14 | B14 | -1.35
15 | B15 | -0.106
16 | B16 | -0.069

Row | Sequence | log2 fold change of degron read counts
17 | B17 | -2.89
18 | B18 | -0.908
19 | B19 | -2.04
20 | B20 | 1.46
21 | B21 | -0.289
22 | B22 | -1.73
23 | B23 | -1.13
24 | B24 | -0.253
25 | B25 | -0.558
26 | B26 | -0.0632
27 | B27 | -0.797
28 | B28 | -0.831
29 | B29 | 1.19
30 | B30 | -0.333
31 | B31 | -0.668
32 | B32 | 0.469
